Assay results as given in article PMC2223503.
Ends that are not written are not given here.

Key:
CCK-B receptors = assay: competitive inhibition of [125I]BH-CCK-8 binding in tumour-free human pancreas (CCK receptor subtype); conditions: for potency in competitive inhibition of [125I]BH-CCK-8 binding: CCK-8, gastrin, L365,260 and CR 2093 compared, three experiments in duplicate (Figure 2)
[1] = system: patients with advanced pancreatic cancer; conditions: ref Abbruzzese et al, 1992; cited from earlier work
[2] = system: CCK-A and CCK-B receptors; conditions: ref Wank et al, 1994 (preceding sentence); cited from earlier work
[3] = system: pancreatic cancer in animal models; conditions: ref Townsend et al, 1981, Poston et al, 1988, Edwards et al, 1989, Meijers et al, 1991, 1992; cited from earlier work
BBS receptors = assay: storage phosphor autoradiography, binding of [125I]Tyr4-BBS to human pancreatic tissue sections; conditions: pancreatic cancer, receptor-negative cases, 10 of 12
[4] = system: patients with pancreatic cancer; conditions: radioiodinated VIP, ref Virgolini et al, 1994; cited from earlier work
[5] = system: pancreatic cancer cell proliferation; conditions: ref Liehr et al, 1990; cited from earlier work
Secretin receptors = conditions: ref Laburthe et al, 1994; cited from earlier work
VIP receptors [6] = system: VIP receptors; design: method as in Laburthe et al, 1994; conditions: ref Laburthe et al, 1994; cited from earlier work
healthy human subjects = conditions: ref Domschke et al, 1977, Fahrenkrug et al, 1987; cited from earlier work
VIP receptors [7] = assay: storage phosphor autoradiography, binding of [125I]VIP-28 to human pancreatic tissue sections
Source text: Abscissa, concentrations of various agents indicated above.

MIA PaCa-2 = conditions: ref Poston et al, 1988, Liehr et al, 1990; cited from earlier work
PANC- 1 = conditions: ref Poston et al, 1988, Liehr et al, 1990; cited from earlier work
rat acinar cell tumours = conditions: no reference given; cited from earlier work
intact cells = conditions: ref Herrington and Adrian, 1995; cited from earlier work
BOP-hamster model = conditions: ref Johnson et al, 1983, Howatson et al, 1985, Meijers et al, 1990; cited from earlier work
[8] = system: human pancreatic cancer cell lines or human pancreatic cancer xenografts in nude mice; conditions: ref Upp et al, 1987, Smith et al, 1990, Nio et al, 1993; cited from earlier work
[9] = system: membranes of other pancreatic cancer cell lines; conditions: ref Singh et al, 1991; cited from earlier work
[10] = system: receptors for cholecystokinin (CCK); assay: storage phosphor autoradiography, binding of [125I]BH-CCK-8 to human pancreatic tissue sections; conditions: pancreatic cancer, n = 12
[11] = system: pancreatic neoplasms of azaserine-treated rats; conditions: ref Douglas et al, 1989, Bell et al, 1992, Tang et al, 1995a; cited from earlier work

CC(C)(C)CCNC(=O)[C@@H](CCC(=O)O)NC(=O)c1cccc(Cl)c1 [CR 2093]
potency in competitive inhibition of [125I]BH-CCK-8 binding (CCK-B receptors): similarly potent

Cc1cccc(NC(=O)N[C@@H]2N=C(c3ccccc3)c3ccccc3N(C)C2=O)c1 [L365,260]
potency in competitive inhibition of [125I]BH-CCK-8 binding (CCK-B receptors): similarly potent

CN1C(=O)[C@@H](NC(=O)c2cc3ccccc3[nH]2)N=C(c2ccccc2)c2ccccc21 [MK-329]
impact on tumour progression, pain or nutrition [1]: failed to demonstrate any impact

CN1C(=O)[C@@H](NC(=O)c2cc3ccccc3[nH]2)N=C(c2ccccc2)c2ccccc21 [devazepide]
affinity relative to the CCK-B antagonists L365,260 and CR 2093 (CCK-B receptors; Figure 2B): about 45 -fold lower
replacement of [125I]BH-CCK-8 binding (CCK-B receptors; at a concentration of 1 µM): able to replace the binding

CCK-8: CCK receptor agonist; non-selective ligand for both CCK-A and CCK-B receptors
receptor subtype selectivity [2]: non- selective ligand for both CCK-A and CCK-B receptors
potency in competitive inhibition of [125I]BH-CCK-8 binding (CCK-B receptors): similarly potent

bombesin [BBS]
effect on growth of pancreatic cancer [3]: inconsistent and unclear
Peptide bound (BBS receptors): 0 fmol mg-1 protein

gastrin
potency in competitive inhibition of [125I]BH-CCK-8 binding (CCK-B receptors): similarly potent

radioiodinated VIP: radioiodinated VIP for in vivo scanning (Virgolini et al, 1994) (HSDAVFTDNYTRLRKQMAVKKYLNSILN; ends and bridges not checked; also: 125I-labelled, position not given here; UniProt P01282 125-152, looked up)
tumour visualization [4]: visualized tumour masses

secretin
effect on cell proliferation [5]: no effect
affinity in words (Secretin receptors): high affinity
effect on growth of pancreatic cancer [3]: inconsistent and unclear

vasoactive intestinal peptide [VIP]
affinity relative to secretin (VIP receptors [6]): much higher than that of secretin
effect on pancreatic secretion (healthy human subjects): stimulates secretion of insulin, glucagon and bicarbonate output
affinity in words (Secretin receptors): relatively low affinity
effect on growth of pancreatic cancer [3]: inconsistent and unclear
Peptide bound (VIP receptors [7]; normal pancreas, n = 10, [125I]VIP-28 100 pM, 22 °C, 180 min): 0 fmol mg-1 protein
Peptide bound (VIP receptors [7]; pancreatic cancer, receptor-negative cases, 9 of 12): 0 fmol mg-1 protein
specific binding and effect (MIA PaCa-2): neither specific binding nor effect of VIP were detected
specific binding and effect (PANC- 1): neither specific binding nor effect of VIP were detected

B1: cholecystokinin (peptide, UniProt P06307 21-115, looked up)
Cholecystokinin: QPVPPADPAGSGLQRAEEAPRRQLRVSQRTDGESRAHLGALLARYIQQARKAPSGRMSIVKNLQNLDPSHRISDRDYMGWMDFGRRSAEEYEYPS
modifications: Cholecystokinin
notes: gut hormone
effect on proliferation of rat acinar cell tumours (rat acinar cell tumours): stimulates proliferation of rat acinar cell tumours
specific binding (intact cells): could not be demonstrated
effect on pancreatic carcinogenesis (BOP-hamster model): rather inconsistent
effect on growth of human pancreatic cancer [8]: stimulative, inhibitory or no effect
specific binding [9]: no specific CCK binding was detected
Peptide bound [10]: 0 fmol mg-1 protein
effect on growth of pancreatic neoplasms [11]: Promotive effects
